According to paper PMC4336329 (PLoS ONE, 2015):
The whole screen tested about 310,000 compounds, of which about 2,200 (0.71%) showed an effect of 50% or more. The effect is printed as a negative number. Some of the results follow.

The compounds below were run against human ether-à-go-go-related gene (hERG) potassium channel (human, UniProt Q12809) (assay: primary screen, population patch clamp on CHO cells stably expressing hERG).
Sequence of human ether-à-go-go-related gene (hERG) potassium channel (Q12809 whole entry, looked up): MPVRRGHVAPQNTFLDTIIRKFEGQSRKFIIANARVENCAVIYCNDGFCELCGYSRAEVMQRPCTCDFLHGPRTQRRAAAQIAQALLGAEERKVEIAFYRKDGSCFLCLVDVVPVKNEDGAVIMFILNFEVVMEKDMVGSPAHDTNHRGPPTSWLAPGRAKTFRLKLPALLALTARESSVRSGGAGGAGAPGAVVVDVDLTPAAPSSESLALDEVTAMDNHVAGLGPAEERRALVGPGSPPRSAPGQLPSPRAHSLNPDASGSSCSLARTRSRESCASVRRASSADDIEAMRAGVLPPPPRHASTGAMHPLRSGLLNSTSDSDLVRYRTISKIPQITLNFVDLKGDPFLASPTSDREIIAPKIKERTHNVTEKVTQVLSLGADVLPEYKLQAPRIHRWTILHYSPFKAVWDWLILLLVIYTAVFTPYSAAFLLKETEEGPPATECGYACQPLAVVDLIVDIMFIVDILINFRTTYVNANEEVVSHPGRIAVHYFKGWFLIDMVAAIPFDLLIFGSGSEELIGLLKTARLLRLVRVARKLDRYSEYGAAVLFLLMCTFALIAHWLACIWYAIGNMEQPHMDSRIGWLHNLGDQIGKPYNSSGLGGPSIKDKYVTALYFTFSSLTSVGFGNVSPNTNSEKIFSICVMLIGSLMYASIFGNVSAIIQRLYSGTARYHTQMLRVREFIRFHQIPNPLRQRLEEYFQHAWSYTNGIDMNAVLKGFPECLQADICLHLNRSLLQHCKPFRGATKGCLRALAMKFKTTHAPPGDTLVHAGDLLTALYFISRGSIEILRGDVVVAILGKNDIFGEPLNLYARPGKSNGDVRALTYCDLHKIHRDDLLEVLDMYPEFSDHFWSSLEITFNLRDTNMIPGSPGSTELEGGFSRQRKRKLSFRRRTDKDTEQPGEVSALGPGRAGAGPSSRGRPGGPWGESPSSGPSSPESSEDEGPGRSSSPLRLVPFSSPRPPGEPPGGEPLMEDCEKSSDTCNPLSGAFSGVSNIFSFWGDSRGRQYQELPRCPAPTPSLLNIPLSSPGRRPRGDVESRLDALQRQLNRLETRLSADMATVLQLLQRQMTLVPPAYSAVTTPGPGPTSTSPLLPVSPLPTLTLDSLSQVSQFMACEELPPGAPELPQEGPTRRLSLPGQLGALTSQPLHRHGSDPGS

Row | SMILES | hERG current change (%, negative = inhibition) at 1uM
1 | COc1cccc(N2CCN(C(=O)C3C4C=CC5(CN(Cc6ccccc6Cl)C(=O)C35)O4)CC2)c1 (stereo not drawn) | 15.1%
2 | CC(C)Oc1ccc(/C=C(\NC(=O)/C=C/c2ccco2)C(=O)NCCc2nc3ccccc3[nH]2)cc1 | 4.78%
3 | NC(N)=NS(=O)(=O)c1ccc(N/C=C\C(=O)c2ccncc2)cc1 | 11.3%
4 | O=C(CCc1nnc(CCCCc2ccccc2)o1)N(CCO)Cc1ccccc1 | 11.2%
5 | Cc1cc(Oc2cc(NN3CCCCC3)c([N+](=O)[O-])cc2[N+](=O)[O-])c(C(=O)c2ccccc2)cc1Cl | 1.17%
6 | Cl.N=C(N)SCP(=O)(c1ccccc1)c1ccccc1 | 12.5%
7 | COc1ccc(OCCNS(=O)(=O)c2cccc([N+](=O)[O-])c2)cc1 | 10.5%
8 | Cc1cc(=O)oc(C)c1C(=O)NCCCN1C(C)CCCC1C (stereo not drawn) | 20.2%
9 | COc1ccc(OC)c(C(=O)CSc2nnc(Cc3cccs3)n2C)c1 | -3.55%
10 | CN(CC(=O)O)S(=O)(=O)c1cc(Cl)ccc1Cl | 6.43%
11 | O=C(Cc1ccc(Cl)cc1)NCCS(=O)(=O)N1CCN(c2ccccc2F)CC1 | 0.739%
12 | Cc1cc(NC(=O)c2cccnc2Cl)ccc1NC(=O)c1cc2ccccc2o1 | 18.2%
13 | COc1ccc(CCNC(=O)C(=O)NCc2ccccc2)cc1OC | 14.2%
14 | Cc1cc(OCC(=O)NCc2ccc(S(N)(=O)=O)cc2)c2c3c(c(=O)oc2c1)CCC3 | 13.4%
15 | CCCOc1ccc(C2C3=C(Nc4nc(N)[nH]c(=O)c42)c2ccccc2C3=O)cc1 (stereo not drawn) | -8.47%
16 | C=CCNc1nc(=S)[nH]c2cc(OC)c(OC)cc12 | 8.32%
17 | O=C1CCC(=O)N(O)CCCCCNC(=O)CCC(=O)N(O)CCCCNC(=O)CCC(=O)N(O)CCCCCN1 | 9.22%
18 | COc1ccccc1CC(=O)NC1CCCc2ccccc21 (stereo not drawn) | -0.162%
19 | CCCCc1cc(=O)oc2cc(O)ccc12 | 3.97%
20 | O=C(c1ccc([N+](=O)[O-])cc1)n1nc(-c2ccccc2)nc1NCc1ccccc1 | 2.69%
21 | COc1ccc(/C=N/OCC(=O)NC(c2ccccc2)c2ccccc2)c(OC)c1 | -15.2%
22 | CCOc1ccc(NC(=O)COC(=O)c2ccc3c(c2)OCCO3)cc1 | 19.5%

Row | SMILES | hERG current change (%, negative = inhibition) at 1uM
23 | CCOc1ccccc1C1CC(=O)Nc2cc3c(cc21)OCCO3 (stereo not drawn) | 4.97%
24 | O=S(=O)(Nc1ccc(OC(F)(F)F)cc1)c1cccc2nonc12 | 17.2%
25 | COc1ccc(-c2nnn(CC(=O)N(CC(=O)NCCC(C)C)Cc3cccs3)n2)cc1OC | -3.48%
26 | O=C(COc1ccccc1Cl)Nc1ccc(C(=O)O)cc1NC(=O)COc1ccccc1Cl | 13%
27 | CCN(CC)c1ccc(/C=N/NS(=O)(=O)c2ccc(C)c([N+](=O)[O-])c2)cc1 | 10.5%
28 | CC(CCc1ccccc1)NC(=O)COC(=O)c1ccc(NC(=O)CC#N)cc1 (stereo not drawn) | 10.6%
29 | N#CCC(=O)NC(=O)NCC1CC1 | 12.1%
30 | CSc1nc2c(c(-c3ccc(O)cc3)c1C#N)CCC2 | 12.2%
31 | Cc1ccc2c(c1)CCCN2C(=O)c1ccco1 | 8.34%
32 | COc1ccc(OC)c(NC(=O)c2c3c(nc4ccccc24)CCC3)c1 | -0.839%
33 | CC1=CC(=O)C=C(C)C1=NOC(=O)/C=C\c1ccccc1 | 11.7%
34 | COc1ccc(N2CCN(S(=O)(=O)c3ccc(C(=O)NCc4ccco4)cc3)CC2)cc1 | 4.71%
35 | CC(=O)Oc1cccc(N2C(=O)C3CC=C(Cl)CC3C2=O)c1 (stereo not drawn) | 2.21%
36 | Cc1ccccc1N1CCN(C(=O)CCN2C(=O)c3ccccc3C2=O)CC1 | 1.51%
37 | C/C=C(\C)CN1CCC(n2nccc2NC(=O)CCc2ccccc2)CC1 | 6.17%
38 | CC(=O)NCC(=O)N1CCC(n2nccc2NC(=O)CCCc2ccccc2)CC1 | -5.9%
39 | COC(=O)Nc1c(C(=O)OC)cc(OC)c(OC)c1OC | 6.05%
40 | O=[N+]([O-])c1cccc(/C=C2\CCC(/C=N/Nc3ccc4ccccc4n3)=C2N2CCOCC2)c1 | 11.1%
41 | COc1ccc(N2CCN(C(=O)COC(=O)CNC(=O)c3ccc(C)cc3)CC2)cc1 | 9.43%
42 | NC(=O)N1N=C2/C(=C/c3ccccc3)CCCC2C1c1ccccc1 (stereo not drawn) | 15.7%
43 | Cl.NC(CC(=O)O)c1ccc(F)cc1 (stereo not drawn) | 2.56%
44 | C/C(N)=C(/C#N)C(=O)COC(=O)COc1ccc(Cl)cc1C | 4.95%

Row | SMILES | hERG current change (%, negative = inhibition) at 1uM
45 | Cc1ccc(N2C(=O)NC(NS(=O)(=O)c3ccc(C)cc3)(C(F)(F)F)C2=O)cc1 (stereo not drawn) | 6.07%
46 | Clc1ccc(-c2nc(Cc3ccccc3Cl)no2)cc1 | 7.93%
47 | CC(=O)Nc1ccc(OC(F)(F)C(F)C(F)(F)F)c(NC(C)=O)c1 (stereo not drawn) | 15.3%
48 | Cc1oc(-c2ccccc2Cl)nc1CS(=O)(=O)CC(=O)NCCN1CCOCC1 | 5.34%
49 | Cc1cc2c(c(Sc3ccccc3)n1)C(=O)OC2 | -10.8%
50 | Cc1ccc(NC2OC(CO)C(O)C2O)cc1[N+](=O)[O-] (stereo not drawn) | 8.42%
51 | CCNC(=O)NC(=O)C(C)OC(=O)[C@H](C)NS(=O)(=O)c1c(C)c(C)cc(C)c1C (stereo partly drawn) | -7.17%
52 | C=CCSc1nnc(NC(=O)c2ccc(S(=O)(=O)NCC3CCCO3)cc2)s1 (stereo not drawn) | 15%
53 | COC(=O)c1cccc(C(=O)Nc2ccc(C)cc2Br)n1 | -2.04%
54 | CC(=O)N1CN(CCCn2ccnc2)Cc2c1sc1c2CCCC1 | 9.63%
55 | O=C(NC1=NCCS1)c1cccc(OC(F)F)c1 | 10.3%
56 | CCC(C)N1CCNCC1.Cl (stereo not drawn) | 13.9%
57 | CSc1ccc(C(=O)C2CCCN(C(=O)Cn3cnnn3)C2)cc1 (stereo not drawn) | 1.33%
58 | CS(=O)(=O)c1ccc2nc(NC(=O)c3cccc(Cl)c3)sc2c1 | 6.95%
59 | O=S(=O)(N1CCCCC1)N1CCN(c2ccccc2F)CC1 | 9.46%
60 | CC(=O)Nc1sc(C)c(C)c1CN1CCN(S(=O)(=O)c2ccccc2)CC1 | 2.9%
61 | COc1cc(/C=N/NC(=O)CCc2c(C)n[nH]c2C)ccc1O | 12%
62 | O=C(N1CCCCC1)N1CCN(S(=O)(=O)c2ccccc2)CC1 | 6.85%
63 | COc1ccc(C(=O)N[C@H](C(=O)Nc2nc3c(s2)CCCC3)C(C)C)cc1 | 7.47%
64 | O=S(=O)(CC(O)COc1ccc(Br)cc1)c1ccccc1 (stereo not drawn) | 10.4%
65 | O=C(COc1ccc(S(=O)(=O)N2CCCCC2)cc1Cl)N1CCOCC1 | 13.5%
66 | CN=c1scc(C)n1/N=C/c1ccc(O)cc1 | 10.3%

Row | SMILES | hERG current change (%, negative = inhibition) at 1uM
67 | CC(C)OC(=O)Nc1ccc(-c2ccc(NC(=O)OC(C)C)cc2Cl)c(Cl)c1 | 16.4%
68 | N#C/C(=C\c1ccc(F)cc1)C(=O)NC1CCS(=O)(=O)C1 (stereo not drawn) | 13.2%
69 | COc1ccc(-c2nc(=S)c3c([nH]2)Oc2ccc(C)cc2C3)cc1O | 13%
70 | COC(=O)C1=C(c2c(C)noc2C)C[C@@H]2CC[C@H]1N2C(=O)NCCOc1ccccc1Cl | 13.8%
71 | COc1ccc(N(C)S(=O)(=O)c2ccc(Cl)c(C(=O)NCC(C)(C)N3CCOCC3)c2)cc1 | -21.1%
72 | CCN1C(=O)N(C)[C@@H](c2ccccc2)C(C(C)=O)=C1C | 22.1%
73 | N/C(=N\NS(=O)(=O)c1ccccc1Cl)c1ccccn1 | 14.6%
74 | COCCn1c(=O)[nH]c2cc(C(=O)NCCN3CCN(c4ccc(OC)cc4)CC3)ccc2c1=O | 11.4%
75 | COc1ccc(C2C(C(=O)NC(C)C)c3ccccc3C(=O)N2C)cc1OC (stereo not drawn) | 8.64%
76 | COc1ccc(S(=O)(=O)N2CCN(C(=O)c3oc4ccccc4c3C)CC2)cc1 | 14.4%
77 | COc1ccc(OCC(O)CN(C)C(=O)C(C)Oc2ccccc2)cc1 (stereo not drawn) | 13.2%
78 | CCCN1CCN(C(=O)c2oc3ccccc3c2NC(=O)COc2ccc(OC)cc2)CC1 | -46.3%
79 | Cc1nnc2c(NCCc3ccccc3)nc3ccccc3n12 | 10.1%
80 | CC(=O)C[C@H](O)CC(=O)[C@@H]1OC(=O)CCCCCCc2ccccc21 | 9.69%
81 | CC(CCC(=O)O)C1CC[C@H]2C3CCC4CC(=O)CCC4(C)[C@H]3CC(=O)C12C (stereo partly drawn) | 1.89%
82 | Cc1ccc(C)c(SCC(=O)OCC(=O)N2CC(C)OC(C)C2)c1 (stereo not drawn) | -0.0748%
83 | CCCCN(CC)Cc1ccc(CNC(=S)Nc2c(C)cc(C)cc2C)o1 | -9.61%
84 | O=C(c1ccc(Br)cc1)N(Cc1ccco1)C1CCS(=O)(=O)C1 (stereo not drawn) | 11.2%
85 | O=C(CN1CCN(C(=O)c2c(F)cccc2F)CC1)Nc1ccccc1F | 0.0409%
86 | O=C(Nc1ccc2c(c1)OCCO2)c1cnccn1 | -5.98%
87 | COc1cccc(N2CCN(c3nc(C)cc(=O)[nH]3)CC2)c1 | 14.4%
